Out of some 50,000 compounds screened, about 800 (1.6%) showed an effect of 50% or more. The list shows a part of the results.
Target: Bcl-2-like protein 10 (Homo sapiens) (UniProt Q9HD36)
Assay: Phenotype converters, Bcl-B/TR3 peptide binding displacement, primary biochemical FP (AID 1240);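 further: 0% = Bcl-B with tracer peptide and DMSO and 100% = tracer peptide lacking Bcl-B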
Details: GST-Bcl-B / FITC-TR3 peptide fluorescence polarization; stronger effect = higher value; compound at 3.75 mg/L

Chain of UniProt Q9HD36 (Q9HD36 whole entry, looked up): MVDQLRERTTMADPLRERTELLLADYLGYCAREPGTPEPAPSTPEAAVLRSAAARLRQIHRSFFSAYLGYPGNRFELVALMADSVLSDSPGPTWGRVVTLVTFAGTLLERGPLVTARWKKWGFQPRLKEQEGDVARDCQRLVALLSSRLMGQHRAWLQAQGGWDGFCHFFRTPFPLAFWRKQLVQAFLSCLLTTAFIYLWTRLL

Structure (SMILES) | displacement [%]
O=C1NN(c2ccccc2)C(=O)/C1=C\C=C\c1ccccc1 | 30.9
O=[N+]([O-])c1ccc(/C=N/Nc2cc(N3CCOCC3)nc(N3CCOCC3)n2)cc1 | 8.9
Cc1ccccc1/C=N/NC(=O)CCc1ccccc1 | -9.7
Cc1csc(-c2cc3ccc(O)c(CN4CC5(C)CC4CC(C)(C)C5)c3oc2=O)n1 (stereo unspecified) | 138
C=CCn1c(SCC(=O)Nc2ccc(OC)cc2)nc(O)c(Cc2ccccc2)c1=O | -0.2
O=Cc1cc(OCc2ccccc2)ccc1O | -6
O=C(COc1ccc2ccccc2c1)NCc1ccc(Cl)cc1 | -5.5
COc1ccc(NC(=O)C(=O)NCc2ccc(Cl)cc2)c(OC)c1 | 7.2
O=C1c2cc3ccccc3c(-c3ccccc3)c2C(=O)N1c1cccc(O)c1 | -1.2
O=C1c2cccc([N+](=O)[O-])c2C(=O)N1c1ccc2[nH]c(=S)sc2c1 | -9.2
C=CCOC(=O)C1=C(C)NC(=S)NC1c1ccccc1OCC (stereo unspecified) | 2.1
CC(C)(C)CNC(=O)C(=O)NCCc1ccccc1 | 4.5
CCOc1cc(/C=N/n2cnnc2)ccc1OCCOc1ccccc1C | -5.8
COC(=O)c1ccc(C2C3=C(CC(C)(C)CC3=O)NC3=C2C(=O)CC(C)(C)C3)cc1 | -4.9
COc1ccc2c(c1OC)C(=O)OC2CC(=O)c1cc(F)ccc1O (stereo unspecified) | 1.5
CCc1ccccc1NC(=O)CN(c1ccc(Cl)cc1)S(C)(=O)=O | 13.6
O=C(Nc1ccccc1)N1CCN(C(=O)Nc2ccccc2)CC1 | -0.7
COc1ccc(C(=O)Nc2ccccc2C(=O)NC(C(=O)NCc2ccccc2)C(C)C)cc1 (stereo unspecified) | 5.1
CCN(CC)c1ccc(C(=O)Nc2ccccc2C(F)(F)F)cc1 | 16.8

Structure (SMILES) | displacement [%]
CCOC(=O)C1=C(O)/C(=C\c2cccc3ccccc23)N=C1C | 10.8
Cc1cccc(/C(N)=N/OC(=O)c2ccc(Br)cc2)c1 | -6.1
O=C(O)CCSc1nc2ccccc2n1Cc1ccccc1 | 3.1
O=C(Nc1ccc(Cl)c(Cl)c1)Nc1nnc(Cc2ccc(F)cc2)s1 | 7.6
CC(C)(C)c1ccc(C(=O)Nc2sc3c(c2C(N)=O)CCCCCC3)cc1 | -6.1
CCC(C)(C)C1CCc2c(sc(NC(=O)c3cnccn3)c2C(=O)OC)C1 (stereo unspecified) | 6.1
COc1ccc(OC)c(NC(=S)NC(NC(=O)c2ccc(C)cc2)C(Cl)(Cl)Cl)c1 (stereo unspecified) | -3.8
Cc1ccc(SCCNC(=O)/C=C/c2ccccc2Cl)cc1 | -11
O=C(CCc1ccccc1)Nc1c(F)c(F)c(F)c(F)c1F | -1.5
COc1ccc(CNC(=O)c2cnn3c(C(F)(F)F)cc(-c4ccccc4)nc23)cc1 | -4.9
CC(Oc1ccccc1)C(=O)N1CCC(Cc2ccccc2)CC1 (stereo unspecified) | 3.1
CNCC(O)COc1ccc(C)cc1C (stereo unspecified) | -4.8
O=C(NCc1ccc2c(c1)OCO2)c1ccc(F)cc1 | 11.2
COc1ccc(NC(=O)COc2ccc(Br)cc2C(C)(C)C)c(OC)c1 | 6.6
NC(=O)c1ccc(Cl)c(S(=O)(=O)N2CCOCC2)c1 | -7.7
O=C(NCCOc1ccc(F)cc1)c1ccccc1-c1ccccc1 | 15.4
CCc1c(-c2ccc(Cl)s2)nc2ccc(Br)cc2c1C(=O)O | -2
O=C(NCc1ccccc1)c1cc(-c2ccco2)nc2ccccc12 | 34.7
CCc1ccc(OCCCCCn2ccnc2)cc1 | 5.9

Structure (SMILES) | displacement [%]
COc1ccc(S(=O)(=O)Nc2ccc3c(c2)OCO3)cc1 | 6.5
NC(=O)C1CCN(C(=O)Cc2ccc(Cl)cc2)CC1 | -1.7
NC(=O)c1c(NC(=O)c2ccc(Br)o2)sc2c1CCCCC2 | -1.5
O=C1CSC(=S)N1c1ccccc1C(F)(F)F | -0.7
CCCCN1C(=O)/C(=C/c2cccc3ccccc23)SC1=S | 3.1
Cc1sc2nc(SCC(=O)NCCCn3ccnc3)[nH]c(=O)c2c1C | -7
C=CCOc1ccc(/C=C2/SC(=O)NC2=O)cc1Br | -10.8
COc1ccc(N(CC(=O)Nc2ccc(I)cc2)S(=O)(=O)c2ccccc2)cc1 | -2
c1ccc2c(c1)nc(N1CCOCC1)c1nncn12 | 4.7
c1ccc(Oc2cccc(CSc3nnc4c(n3)[nH]c3ccccc34)c2)cc1 | 46.6
CC(NC(=O)c1ccccc1)c1ccc(Cl)c(Cl)c1 (stereo unspecified) | -5.8
Cc1cccc(CC2CC(=O)N(c3ccc(/C=C/C(=O)O)cc3)C2=O)c1 (stereo unspecified) | 10
O=C(Nc1ccccc1)Nc1nnc(CSCc2ccc(Cl)cc2)s1 | 1.8
Cc1nc(C=C2C(=O)C=Cc3ccccc32)c(O)o1 | 2
Cc1ccc(OCC(=O)N2CCC(C(N)=O)CC2)cc1 | -10.1
O=C(Nc1ccc(S(=O)(=O)N2CCCCCC2)cc1)C(F)(F)F | 4.2
COc1ccc2c(c1)nc(SCC(=O)c1ccc(OC)c(OC)c1)n2Cc1ccccc1 | 6.5
Cc1onc(-c2ccccc2Cl)c1C(=O)NCCNc1c(Cl)cccc1[N+](=O)[O-] | 14.1

Source: PubChem BioAssay AID1240 (Sanford-Burnham Center for Chemical Genomics, 2008)
